No constants are given. Whether binding was seen depends on the method and setting. For part of these data: In cells and extracts the contact can be indirect. Some binding calls cover weakened binding; strength is not graded here.
Legend:
[1] = biological target: T1, FANCA (human (endogenous in HT1080 and HeLa)) (UniProt O15360); assay: SEC; Superose 6 gel filtration of nuclear extract from HeLa cells; fractions immunoblotted; overlapping profiles (co-fractionation)
T1 sequence: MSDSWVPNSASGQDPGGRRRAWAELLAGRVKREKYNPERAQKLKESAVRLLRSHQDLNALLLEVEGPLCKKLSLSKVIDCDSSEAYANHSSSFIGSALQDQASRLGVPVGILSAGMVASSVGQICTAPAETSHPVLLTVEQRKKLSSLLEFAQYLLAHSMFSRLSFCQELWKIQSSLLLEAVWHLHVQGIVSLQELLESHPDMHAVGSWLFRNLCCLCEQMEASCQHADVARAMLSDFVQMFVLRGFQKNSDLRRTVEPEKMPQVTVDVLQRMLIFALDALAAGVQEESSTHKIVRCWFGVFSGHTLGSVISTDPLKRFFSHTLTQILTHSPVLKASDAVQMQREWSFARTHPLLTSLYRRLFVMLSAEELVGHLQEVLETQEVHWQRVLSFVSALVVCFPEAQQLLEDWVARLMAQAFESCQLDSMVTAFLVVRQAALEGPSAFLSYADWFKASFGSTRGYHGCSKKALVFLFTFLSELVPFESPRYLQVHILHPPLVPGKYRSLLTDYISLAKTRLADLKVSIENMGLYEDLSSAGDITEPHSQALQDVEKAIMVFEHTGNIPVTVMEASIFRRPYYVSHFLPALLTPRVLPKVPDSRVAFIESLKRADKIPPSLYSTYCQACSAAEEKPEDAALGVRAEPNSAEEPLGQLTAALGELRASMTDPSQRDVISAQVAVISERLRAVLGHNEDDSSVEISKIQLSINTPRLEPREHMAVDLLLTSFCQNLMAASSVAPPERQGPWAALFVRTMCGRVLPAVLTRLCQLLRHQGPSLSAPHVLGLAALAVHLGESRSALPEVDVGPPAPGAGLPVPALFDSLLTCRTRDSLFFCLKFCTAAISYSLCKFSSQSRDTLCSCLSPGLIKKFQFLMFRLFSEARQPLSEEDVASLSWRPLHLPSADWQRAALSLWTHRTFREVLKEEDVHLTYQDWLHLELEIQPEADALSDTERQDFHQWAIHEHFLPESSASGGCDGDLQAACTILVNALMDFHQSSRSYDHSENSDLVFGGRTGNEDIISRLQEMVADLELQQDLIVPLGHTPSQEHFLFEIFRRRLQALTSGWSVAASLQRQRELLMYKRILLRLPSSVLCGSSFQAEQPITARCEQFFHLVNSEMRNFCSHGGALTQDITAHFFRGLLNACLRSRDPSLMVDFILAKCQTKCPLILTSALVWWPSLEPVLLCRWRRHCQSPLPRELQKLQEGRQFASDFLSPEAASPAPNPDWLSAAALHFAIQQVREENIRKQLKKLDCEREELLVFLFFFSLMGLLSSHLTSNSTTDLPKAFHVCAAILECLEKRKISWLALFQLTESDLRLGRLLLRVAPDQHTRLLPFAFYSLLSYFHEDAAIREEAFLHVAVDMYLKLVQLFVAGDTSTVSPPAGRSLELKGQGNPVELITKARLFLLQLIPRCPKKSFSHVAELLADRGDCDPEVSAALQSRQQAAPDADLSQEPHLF

The chains behind the UniProt entries cited, without tags or fusion partners.
UniProt Q8IYD8: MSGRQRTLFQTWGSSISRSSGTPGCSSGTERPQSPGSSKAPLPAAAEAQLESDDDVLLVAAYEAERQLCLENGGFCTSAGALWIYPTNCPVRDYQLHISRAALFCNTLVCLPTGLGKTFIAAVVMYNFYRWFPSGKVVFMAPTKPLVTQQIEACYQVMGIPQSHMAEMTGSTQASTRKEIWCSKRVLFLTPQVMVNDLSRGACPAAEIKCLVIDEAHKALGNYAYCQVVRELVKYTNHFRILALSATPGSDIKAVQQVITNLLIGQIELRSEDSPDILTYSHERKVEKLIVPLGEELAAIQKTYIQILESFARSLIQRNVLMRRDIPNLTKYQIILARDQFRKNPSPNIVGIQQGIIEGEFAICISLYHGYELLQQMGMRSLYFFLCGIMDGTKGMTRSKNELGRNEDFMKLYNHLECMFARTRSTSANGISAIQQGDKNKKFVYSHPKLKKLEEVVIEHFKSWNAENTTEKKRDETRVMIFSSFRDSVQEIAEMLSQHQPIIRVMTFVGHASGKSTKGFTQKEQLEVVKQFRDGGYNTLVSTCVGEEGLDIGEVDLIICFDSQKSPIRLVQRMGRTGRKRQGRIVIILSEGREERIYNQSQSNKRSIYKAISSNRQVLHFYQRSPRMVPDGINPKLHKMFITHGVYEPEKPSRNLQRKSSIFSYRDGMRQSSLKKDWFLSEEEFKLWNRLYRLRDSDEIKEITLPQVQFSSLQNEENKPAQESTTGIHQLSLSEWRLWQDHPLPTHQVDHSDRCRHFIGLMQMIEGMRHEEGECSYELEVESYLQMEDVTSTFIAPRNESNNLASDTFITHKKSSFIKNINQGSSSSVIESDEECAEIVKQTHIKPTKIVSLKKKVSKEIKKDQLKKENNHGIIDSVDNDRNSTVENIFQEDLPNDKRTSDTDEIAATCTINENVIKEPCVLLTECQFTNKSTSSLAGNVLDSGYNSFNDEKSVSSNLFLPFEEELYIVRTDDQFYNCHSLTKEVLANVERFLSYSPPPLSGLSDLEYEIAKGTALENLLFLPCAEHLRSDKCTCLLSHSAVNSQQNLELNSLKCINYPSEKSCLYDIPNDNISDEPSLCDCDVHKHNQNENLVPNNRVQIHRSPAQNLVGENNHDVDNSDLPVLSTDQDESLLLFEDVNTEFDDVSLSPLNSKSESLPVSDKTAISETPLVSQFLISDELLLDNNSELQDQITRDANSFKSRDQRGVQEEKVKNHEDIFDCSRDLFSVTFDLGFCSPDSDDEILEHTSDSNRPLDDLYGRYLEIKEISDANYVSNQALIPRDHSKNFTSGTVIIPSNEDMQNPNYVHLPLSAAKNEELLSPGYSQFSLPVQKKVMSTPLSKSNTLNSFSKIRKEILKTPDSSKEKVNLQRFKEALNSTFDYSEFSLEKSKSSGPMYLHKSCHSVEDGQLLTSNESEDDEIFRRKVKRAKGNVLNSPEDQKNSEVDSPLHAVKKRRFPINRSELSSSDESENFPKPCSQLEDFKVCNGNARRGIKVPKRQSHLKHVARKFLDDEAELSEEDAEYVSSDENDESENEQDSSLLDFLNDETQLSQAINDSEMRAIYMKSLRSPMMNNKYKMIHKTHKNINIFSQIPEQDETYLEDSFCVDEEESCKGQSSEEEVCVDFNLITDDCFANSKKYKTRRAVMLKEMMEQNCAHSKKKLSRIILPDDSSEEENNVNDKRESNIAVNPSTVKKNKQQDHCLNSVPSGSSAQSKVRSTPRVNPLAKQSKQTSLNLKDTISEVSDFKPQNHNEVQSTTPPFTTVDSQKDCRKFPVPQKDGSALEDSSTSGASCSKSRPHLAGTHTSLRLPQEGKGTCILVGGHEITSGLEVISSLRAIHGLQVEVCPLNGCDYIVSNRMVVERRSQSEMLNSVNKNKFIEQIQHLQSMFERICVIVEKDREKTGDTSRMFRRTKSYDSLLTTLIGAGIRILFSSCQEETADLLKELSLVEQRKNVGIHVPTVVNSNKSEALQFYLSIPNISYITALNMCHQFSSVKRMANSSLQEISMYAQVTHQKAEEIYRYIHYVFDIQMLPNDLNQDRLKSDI
UniProt Q8N2Z9: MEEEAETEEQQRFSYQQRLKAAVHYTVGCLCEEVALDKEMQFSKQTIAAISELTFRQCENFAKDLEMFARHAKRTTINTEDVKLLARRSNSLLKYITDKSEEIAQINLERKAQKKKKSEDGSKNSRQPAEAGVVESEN

[2] = biological target: T2, FAAP20 (human (endogenous in HT1080 and HeLa)) (UniProt Q6NZ36); assay: as above
T2 sequence: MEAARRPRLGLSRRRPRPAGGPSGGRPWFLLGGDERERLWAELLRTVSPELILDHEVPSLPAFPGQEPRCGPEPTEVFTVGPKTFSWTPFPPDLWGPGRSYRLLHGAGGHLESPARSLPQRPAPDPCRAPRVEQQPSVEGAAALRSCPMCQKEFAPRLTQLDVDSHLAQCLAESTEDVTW

[3] = biological target: T3, FAAP100 (human (endogenous in HT1080 and HeLa)) (UniProt Q0VG06); assay: as above
T3 sequence: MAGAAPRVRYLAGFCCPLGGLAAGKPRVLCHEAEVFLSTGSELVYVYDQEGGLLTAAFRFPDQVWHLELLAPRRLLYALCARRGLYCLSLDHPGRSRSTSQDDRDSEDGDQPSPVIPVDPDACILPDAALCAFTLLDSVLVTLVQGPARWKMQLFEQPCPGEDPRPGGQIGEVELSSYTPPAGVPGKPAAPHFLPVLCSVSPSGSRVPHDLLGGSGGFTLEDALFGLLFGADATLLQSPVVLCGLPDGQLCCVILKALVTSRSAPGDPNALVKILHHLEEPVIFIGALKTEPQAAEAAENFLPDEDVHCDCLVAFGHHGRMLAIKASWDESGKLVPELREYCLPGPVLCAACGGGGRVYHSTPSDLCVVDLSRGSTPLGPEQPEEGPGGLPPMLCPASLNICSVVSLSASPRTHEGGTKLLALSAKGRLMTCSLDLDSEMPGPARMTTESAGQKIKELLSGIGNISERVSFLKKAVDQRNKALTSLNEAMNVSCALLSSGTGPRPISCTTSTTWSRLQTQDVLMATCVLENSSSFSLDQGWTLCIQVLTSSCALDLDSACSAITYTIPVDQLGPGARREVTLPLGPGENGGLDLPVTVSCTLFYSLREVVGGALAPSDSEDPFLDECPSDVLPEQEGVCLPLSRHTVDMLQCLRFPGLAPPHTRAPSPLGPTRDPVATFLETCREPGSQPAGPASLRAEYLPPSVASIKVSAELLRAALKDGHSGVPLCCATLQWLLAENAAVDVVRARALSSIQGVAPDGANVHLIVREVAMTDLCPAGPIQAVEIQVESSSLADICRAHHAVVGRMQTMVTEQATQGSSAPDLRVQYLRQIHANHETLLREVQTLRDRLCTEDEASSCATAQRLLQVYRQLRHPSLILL

[4] = biological target: FANCM (endogenous) (human (endogenous in HeLa)) (UniProt Q8IYD8); assay: as above
[5] = biological target: MHF1 (human (endogenous in HT1080 and HeLa)) (UniProt Q8N2Z9); assay: as above
His-Flag tagged FANCM = His-Flag tagged FANCM (UniProt Q8IYD8); assay: co-IP; two-step affinity purification of HF-FANCM from nuclear extract of HT1080 cells (anti-Flag M2 agarose, elution with 3xFlag peptide, then Talon metal affinity resin with 3 mM imidazole); eluate immunoblotted

binding [1]: binds
binding [2]: binds
binding [3]: binds
binding [4]: binds
binding [5]: binds
binding (His-Flag tagged FANCM): binds
B1: endogenous FoxF1 protein (Forkhead box F1) (protein, UniProt Q12946 1-379)
chain: MSSAPEKQQPPHGGGGGGGGGGGAAMDPASSGPSKAKKTNAGIRRPEKPPYSYIALIVMAIQSSPTKRLTLSEIYQFLQSRFPFFRGSYQGWKNSVRHNLSLNECFIKLPKGLGRPGKGHYWTIDPASEFMFEEGSFRRRPRGFRRKCQALKPMYSMMNGLGFNHLPDTYGFQGSAGGLSCPPNSLALEGGLGMMNGHLPGNVDGMALPSHSVPHLPSNGGHSYMGGCGGAAAGEYPHHDSSVPASPLLPTGAGGVMEPHAVYSGSAAAWPPSASAALNSGASYIKQQPLSPCNPAANPLSGSLSTHSLEQPYLHQNSHNAPAELQGIPRYHSQSPSMCDRKEFVFSFNAMASSSMHSAGGGSYYHQQVTYQDIKPCVM

— paper PMC4811506
